# Assay results taken from PubChem BioAssay (NCI).
#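 Growth conditions: 96-well plates. Treatment: test compound, 48 hours, 5 concentrations. Analysis: linear interpolation between bracketing concentrations; unreached endpoints set to highest concentration. GI50 is the concentration that inhibits growth by half.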 For part of its entries the source gives two or more results. The list is limited to them. There may be further records. For some assays here: Values given together are repeated measurements across runs, samples, wells, individuals or studies. Brackets tell where a record comes from. A, B and so on number the origins entry by entry.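 At the TGI there is no net growth.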 For some assays here: The tests behind the records often covered other concentration ranges, which the source does not state; a value can be the end of its range.
# How the values were obtained:
# Assay in all cases: NCI anticancer screen, dose series, 48 h
# [1] = test system: HCT-116 colon
# [2] = test system: MDA-N
# [3] = test system: HCT-15 colon
# [4] = test system: U251 CNS
# [5] = test system: COLO 205 colon
# [6] = test system: M14 melanoma
# [7] = test system: DU-145 prostate
# [8] = test system: TK-10 renal
# [9] = test system: MOLT-4 leukemia
# [10] = test system: OVCAR-3 ovarian
# [11] = test system: SF-295 CNS
# [12] = test system: XF 498 CNS
# [13] = test system: HT29 colon
# [14] = test system: NCI-H460 lung
# [15] = test system: SW-620 colon
# [16] = test system: DLD-1 colon
# [17] = test system: KM20L2 colon
# [18] = test system: UACC-257 melanoma
# [19] = test system: SNB-19 CNS
# [20] = test system: RPMI-8226 leukemia
# [21] = test system: 786-0 renal
# [22] = test system: LOX IMVI melanoma
# [23] = test system: SF-268 CNS
# [24] = test system: SNB-75 CNS
# [25] = test system: LXFL 529 NSCLC
# [26] = test system: HOP-62 NSCLC
# [27] = test system: HOP-92 NSCLC
# [28] = test system: SK-MEL-28 melanoma
# [29] = test system: IGROV1 ovarian
# [30] = test system: OVCAR-5 ovarian
# [31] = test system: SN12C renal
# [32] = test system: EKVX NSCLC
# [33] = test system: SK-OV-3 ovarian
# [34] = test system: UO-31 renal
# [35] = test system: OVCAR-8 ovarian
# [36] = test system: CCRF-CEM leukemia
# [37] = test system: SF-539 CNS
# [38] = test system: A498 renal
# [39] = test system: SR leukemia
# [40] = test system: DMS 273 small cell lung
# [41] = test system: DMS 114 small cell lung
# [42] = test system: RXF 393 renal
# [43] = test system: A549 NSCLC
smiles,measurement,setting,value
COc1cccc(C2CC(=O)c3cc(N4CCCC4)ccc3N2)c1 (stereo unspecified),TGI,[1],2.87 µM and > 100 µM
same,TGI,[2],23.2 nM and > 100 µM
same,TGI,[3],2.19 µM and > 100 µM
same,TGI,[4],3.96 µM and > 100 µM
same,TGI,[5],159 nM and > 100 µM
same,TGI,[6],4.86 µM and > 100 µM
same,TGI,[7],830 nM and > 100 µM
CC(=O)O[C@H]1C[C@H](O[C@H]2[C@@H](O)C[C@H](O[C@H]3[C@@H](O)C[C@H](O[C@H]4CC[C@@]5(C)C(CCC6C5C[C@@H](O)[C@]5(C)[C@@H](C7=CC(=O)OC7)CC[C@]65O)C4)O[C@@H]3C)O[C@@H]2C)O[C@H](C)[C@H]1O[C@@H]1O[C@H](CO)[C@@H](O)[C@H](O)[C@H]1O (stereo partly specified),TGI,[8],52.3 nM and 761 nM
COc1cc2c(cc1OC)-c1cc(OC)c(OC)cc1[C@H]1CN3CCC[C@@]3(O)C=C21,TGI,[9],1.18 nM and 44.8 nM
same,TGI,[10],< 0.1 nM and 270 nM
same,TGI,[11],1.34 nM and 51.7 nM
same,TGI,[12],< 0.1 nM and 521 nM
same,TGI,[13],0.724 nM and 13.8 nM
same,TGI,[14],0.47 nM and 17.7 nM
same,TGI,[15],1.17 nM and 175 nM
same,TGI,[16],1.93 nM and 41.6 nM
same,TGI,[17],0.771 nM and 1.15 µM
same,TGI,[18],2.16 nM and 109 nM
same,TGI,[19],0.33 nM and 16.2 µM
same,TGI,[20],0.335 nM and 28.5 nM
same,TGI,[21],0.127 nM and 104 nM
same,TGI,[22],0.108 nM and 17.8 nM
same,TGI,[3],< 0.1 nM and 13.1 µM
same,TGI,[23],0.173 nM and 46.2 nM
same,TGI,[24],< 0.1 nM and 14.1 nM
same,TGI,[4],0.312 nM and 170 nM
same,TGI,[25],< 0.1 nM and 1.14 µM
same,TGI,[26],0.155 nM and 176 nM
same,TGI,[27],1.42 nM and 29.5 nM
same,TGI,[28],0.266 nM and 107 nM
same,TGI,[29],0.885 nM and 1.25 µM
same,TGI,[30],1.45 nM and 120 nM
same,TGI,[31],1.41 nM and 1.01 µM
same,TGI,[32],10.9 nM and 6.74 µM
same,TGI,[33],0.391 nM and 159 nM
same,TGI,[34],0.337 nM and 86.9 nM
same,TGI,[35],0.697 nM and 139 nM
same,TGI,[36],0.324 nM and 42 nM
same,TGI,[37],< 0.1 nM and 418 nM
same,TGI,[38],0.491 nM and 351 nM
CCOc1ccc(/C=C\c2cc(OC)c(OC)c(OC)c2)cc1,TGI,[35],27.1 nM and > 100 µM
COc1cc2c(Nc3ccc(Cl)c(Cl)c3F)ncnc2cc1OCC1C[C@@H]2CN(C)C[C@@H]2C1 (stereo partly specified),GI50,[36],"2.48 µM [sample A, mean of 2 tests] and 96.5 nM [sample B, mean of 2 tests] and 2.9 µM [sample C, mean of 2 tests]"
CC(=O)c1c(-c2ccc(Cl)cc2)c(C#N)c(=S)n(C2OC(CO)C(O)C(O)C2O)c1-c1ccccc1 (stereo unspecified),GI50,[14],"7.72 µM [sample A, mean of 2 tests] and > 100 µM [sample B, 1 test]"
same,GI50,[3],"5.49 µM [sample A, mean of 2 tests] and > 100 µM [sample B, 1 test]"
same,GI50,[39],"8.49 µM [sample A, mean of 2 tests] and > 100 µM [sample B, 1 test]"
same,GI50,[27],"> 100 µM [sample A, mean of 2 tests] and 2.41 µM [sample B, 1 test]"
same,GI50,[34],"> 92 µM [sample A, mean of 2 tests] and 1.74 µM [sample B, 1 test]"
same,TGI,[34],"> 100 µM [sample A, mean of 2 tests] and 4.3 µM [sample B, 1 test]"
COc1cc2c(c(OC)c1OC)-c1ccc(SC)c(=O)cc1C(CC(=O)Oc1ccc(F)cc1)C2 (stereo unspecified),TGI,[40],1.31 µM and > 100 µM
same,TGI,[41],1.53 µM and 99.6 nM
same,TGI,[24],75 µM and 837 nM
same,TGI,[42],227 nM and > 100 µM
same,TGI,[25],7.9 µM and > 100 µM
same,TGI,[43],664 nM and > 100 µM
same,TGI,[35],75 µM and 851 nM
same,TGI,[38],27.2 µM and 541 nM
